Source: publication PMC10320511
Results are given in words; binding and its absence hold for the method and conditions named. Binding seen in cells or lysates may run through a third protein. Some entries that bind do so weakly or less than the wild type. Tags and fused reporters may be left off the sequences shown.

How the values were obtained:
[1] = molecular target: T1, FRQ Δ874–884, V5H6-tagged (Neurospora crassa) (UniProt P19970); test: co-IP; V5H6-tagged FRQ (wild type or mutant) pulled down with V5 agarose from Neurospora lysate (cultures in the light, 25 °C); 50 mM Hepes pH 7.4, 137 mM NaCl, 10% glycerol, 0.4% NP-40; 4 °C, 2 h; Western blot with FRQ, FRH, WC-1 and WC-2 antibodies
T1 sequence: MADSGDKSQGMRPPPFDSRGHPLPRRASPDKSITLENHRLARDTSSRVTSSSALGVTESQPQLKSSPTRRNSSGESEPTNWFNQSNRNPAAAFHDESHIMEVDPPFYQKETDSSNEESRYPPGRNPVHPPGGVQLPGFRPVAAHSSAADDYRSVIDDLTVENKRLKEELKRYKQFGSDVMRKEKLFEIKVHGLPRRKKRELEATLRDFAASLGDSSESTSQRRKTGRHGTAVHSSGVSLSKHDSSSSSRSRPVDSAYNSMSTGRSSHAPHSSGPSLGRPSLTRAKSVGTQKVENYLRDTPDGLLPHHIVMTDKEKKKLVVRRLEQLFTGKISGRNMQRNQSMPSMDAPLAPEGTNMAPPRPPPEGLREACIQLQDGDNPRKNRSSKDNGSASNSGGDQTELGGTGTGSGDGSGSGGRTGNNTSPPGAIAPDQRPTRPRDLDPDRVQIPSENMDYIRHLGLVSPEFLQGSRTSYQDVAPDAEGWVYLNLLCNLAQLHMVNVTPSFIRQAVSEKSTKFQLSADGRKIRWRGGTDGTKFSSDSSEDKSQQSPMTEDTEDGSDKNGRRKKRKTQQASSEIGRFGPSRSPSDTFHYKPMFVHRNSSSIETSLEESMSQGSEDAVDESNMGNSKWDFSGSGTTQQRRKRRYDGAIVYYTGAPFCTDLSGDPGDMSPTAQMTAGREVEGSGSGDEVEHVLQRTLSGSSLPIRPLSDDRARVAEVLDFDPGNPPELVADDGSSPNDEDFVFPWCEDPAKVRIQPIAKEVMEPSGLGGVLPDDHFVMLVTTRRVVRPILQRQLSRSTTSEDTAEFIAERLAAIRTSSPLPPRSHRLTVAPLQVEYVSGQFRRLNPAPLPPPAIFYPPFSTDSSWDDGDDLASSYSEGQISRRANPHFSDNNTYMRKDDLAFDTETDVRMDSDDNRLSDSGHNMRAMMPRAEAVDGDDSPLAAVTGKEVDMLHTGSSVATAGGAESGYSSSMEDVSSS

[2] = molecular target: T2, FRQ Δ149–193, V5H6-tagged (Neurospora crassa) (UniProt P19970); test: as above
T2 sequence: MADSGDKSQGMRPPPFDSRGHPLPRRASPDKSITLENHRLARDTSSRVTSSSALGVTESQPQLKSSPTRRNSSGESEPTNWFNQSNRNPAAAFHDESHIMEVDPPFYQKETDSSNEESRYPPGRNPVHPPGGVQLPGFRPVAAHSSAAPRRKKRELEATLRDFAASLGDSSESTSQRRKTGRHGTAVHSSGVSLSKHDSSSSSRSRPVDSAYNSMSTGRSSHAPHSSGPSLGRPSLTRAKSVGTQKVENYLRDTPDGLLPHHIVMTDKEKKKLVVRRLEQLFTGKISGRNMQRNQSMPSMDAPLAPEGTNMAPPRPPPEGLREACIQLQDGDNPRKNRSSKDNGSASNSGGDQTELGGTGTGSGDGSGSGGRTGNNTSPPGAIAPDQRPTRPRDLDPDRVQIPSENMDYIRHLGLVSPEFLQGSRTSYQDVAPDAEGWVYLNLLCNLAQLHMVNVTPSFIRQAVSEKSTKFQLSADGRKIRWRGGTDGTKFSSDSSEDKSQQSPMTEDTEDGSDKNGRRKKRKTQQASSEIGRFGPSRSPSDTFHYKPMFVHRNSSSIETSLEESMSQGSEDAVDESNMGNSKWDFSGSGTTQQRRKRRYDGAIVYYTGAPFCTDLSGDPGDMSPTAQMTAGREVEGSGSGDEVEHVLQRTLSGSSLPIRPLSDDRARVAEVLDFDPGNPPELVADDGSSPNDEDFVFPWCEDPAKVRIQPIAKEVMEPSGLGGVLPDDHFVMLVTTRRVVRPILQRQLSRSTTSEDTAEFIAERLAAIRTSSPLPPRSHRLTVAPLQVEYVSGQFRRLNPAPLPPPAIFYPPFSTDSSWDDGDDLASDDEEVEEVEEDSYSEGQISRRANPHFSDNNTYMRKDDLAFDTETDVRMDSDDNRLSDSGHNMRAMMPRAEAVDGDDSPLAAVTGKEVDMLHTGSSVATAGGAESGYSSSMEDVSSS

binding [1]: binds | binding [2]: no binding
B1: White Collar-2 (WC-2) (protein, UniProt P78714 1-530)
chain: MSHGQPPPGSSMYGFGAMGMGSGMGSGMGSGMGTGMGTGMGTGMSASQMTSDPQDMMSLLDTSVFPGFDGMSMSLDVGDSMSNPFTPVSVPPPLPAGNAGPSHVGVCGGHGAPDQLFSPDDLIATSMSSAGPMIATPTTTTSGPSGGPSSGGGSTLTEFTKRRNWPAKVVEELQDWEHILDANGRIKHVSPSVEPLTGYKPPEIIDLFLRDLIHPDDVGVFTAELNEAIATGSQLRLFYRFRKKDGNWTIFETVGHAHIAAAKFAPNPQNQSPFCQAVFMMARPYPTKNAGLLDSFLEHKIENERLKRRIAELRREEQEEQEESHRTWRMSQEGRSDVTPSDDTATQMGMTPFYIPMNAQADVMMPPPSQPASSLNIALTRENLEGIAGSRPDSIREKMLRYEGNHADTIEMLTGLKYQEGERSHGITTGNASPTLIKGDAGIAIPLDRDPRTGEKKKKIKVAEEYVCTDCGTLDSPEWRKGPSGPKTLCNACGLRWAKKEKKKNANNNNNGGGIGGHNDIHTPMGDHMG
